Measured values from US20250090677A1, “ANTI-CDH6 ANTIBODIES AND ANTIBODY-DRUG CONJUGATES THEREOF” (MULTITUDE THERAPEUTICS INC., priority 2021, published 2025).

Assays:
[1] = tested on: ovarian cancer cell line OVCAR-3; assay: Flow cytometry (FACS) binding of antibodies to OVCAR-3 tumor cells; set-up: species or system human; settings: FIG. 1B (vs Ch069707), FIG. 2 (vs Ch069463)
Protocol: The binding EC50 of the humanized antibodies on tumor cell were tested as follow. Human ovarian cancer cell line OVCAR-3(purchased from National Collection of Authenticated Cell Cultures) cell culture was maintained in vitro as independent monolayer cultures at 37° C. in an atmosphere of 5% CO2. The cells were harvested using trypsin-EDTA partial digestion followed by centrifugation at 1000 rpm for 5 minutes. The cell was resuspended in cold PBS and serial dilution of Ch069707 and CL069707-H1L1, CL069707-H1L2, CL069707-H2L1 and CL069707-H2L2 antibodies were added. Ch069707 antibody was a chimeric antibody. The variable regions were the same as those of CL069707, and the constant region was the same as human IgG1 constant regions (SEQ ID NO: 70 and SEQ ID NO: 71). The cell solutions were mixed, incubated at 4° C. and washed with cold PBS prior to addition of secondary antibody conjugates (for detection purposes). After incubation at 4° C., the cells were washed with PBS, and then subjected to flow cytometry (FACS) analysis.
The mouse Anti-CDH6 antibody CL069463 was humanized by the same method. CL069463-H1L1, CL069463-H2L2, CL069463-H2L3 had similar EC50 as Ch069463 on OVCAR-3 cell. Ch069463 antibody was a chimeric antibody. The variable regions were the same as those of CL069463, and the constant region was the same as human IgG1 constant regions (SEQ ID NO: 70 and SEQ ID NO: 71).

[2] = biological target: T1, CDH9-ECD-His (Homo sapiens, UniProt Q9ULB4); assay: ELISA binding to human CDH9-ECD-His; settings: FIG. 3
T1 construct: His (C); purchased Acro Biosystems, Inc
T1 sequence (Q9ULB4 54-615 limits assumed): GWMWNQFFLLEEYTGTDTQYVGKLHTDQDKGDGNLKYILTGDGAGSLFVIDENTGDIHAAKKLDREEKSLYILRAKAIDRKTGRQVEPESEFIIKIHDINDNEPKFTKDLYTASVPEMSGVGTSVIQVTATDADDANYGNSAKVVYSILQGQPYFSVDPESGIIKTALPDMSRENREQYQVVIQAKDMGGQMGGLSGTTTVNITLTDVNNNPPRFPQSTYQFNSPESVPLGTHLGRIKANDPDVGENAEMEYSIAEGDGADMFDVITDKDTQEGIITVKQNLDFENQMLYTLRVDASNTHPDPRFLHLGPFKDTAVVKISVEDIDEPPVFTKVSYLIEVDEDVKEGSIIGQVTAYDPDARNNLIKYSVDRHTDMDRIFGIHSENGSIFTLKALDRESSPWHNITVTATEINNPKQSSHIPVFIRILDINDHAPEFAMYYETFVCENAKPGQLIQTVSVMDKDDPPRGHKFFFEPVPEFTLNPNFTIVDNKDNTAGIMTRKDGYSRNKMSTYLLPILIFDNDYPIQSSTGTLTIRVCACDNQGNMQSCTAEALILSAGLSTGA
Protocol: (§1) CDH9 and […] are the most closely related family members to CDH6. Binding of CL069707-H1L1 on human CDH6, CDH9 and CDH10 ECD domains were analyzed by ELISA Binding Assay. Human […], CDH9-ECD-His and CDH10-ECD-His antigens were obtained from Acro Biosystems, Inc. 100 μL of 1 μg/mL of the antigens diluted in PBS were added to 96 well plates and incubated in 4° C. overnight. The plates were washed 3 times with 300 μL of washing buffer. Then 100 μL/well of 1% BSA blocking reagent were added to the plates, and incubated at 37° C. for 1 h then the blocking reagent were discarded. A 3-fold serial dilution of CL069707-H1L1 was added to the plates and then incubated at 37° C. for 1 h. Then the plates were washed 3 times with 300 μL of washing buffer. 100 μL/well of HRP-conjugated anti-Human antibody diluted in 1% BSA were added to the plates and then incubated at 37° C. for 1 h. The plates were washed 3 times with 300 μL of washing buffer. 100 μL/well of TMB substrate were added to the plates and incubated for about 10 min in room temperature. Then the reaction was stopped with 100 μL/well of stopping solution. OD450 was read with a plate reader and the data were processed.

[3] = biological target: T2, CDH10-ECD-His (Homo sapiens, UniProt Q9Y6N8); assay: ELISA binding to human CDH10-ECD-His; settings: FIG. 3
T2 construct: His (C); purchased Acro Biosystems, Inc
T2 sequence (Q9Y6N8 55-613 limits assumed): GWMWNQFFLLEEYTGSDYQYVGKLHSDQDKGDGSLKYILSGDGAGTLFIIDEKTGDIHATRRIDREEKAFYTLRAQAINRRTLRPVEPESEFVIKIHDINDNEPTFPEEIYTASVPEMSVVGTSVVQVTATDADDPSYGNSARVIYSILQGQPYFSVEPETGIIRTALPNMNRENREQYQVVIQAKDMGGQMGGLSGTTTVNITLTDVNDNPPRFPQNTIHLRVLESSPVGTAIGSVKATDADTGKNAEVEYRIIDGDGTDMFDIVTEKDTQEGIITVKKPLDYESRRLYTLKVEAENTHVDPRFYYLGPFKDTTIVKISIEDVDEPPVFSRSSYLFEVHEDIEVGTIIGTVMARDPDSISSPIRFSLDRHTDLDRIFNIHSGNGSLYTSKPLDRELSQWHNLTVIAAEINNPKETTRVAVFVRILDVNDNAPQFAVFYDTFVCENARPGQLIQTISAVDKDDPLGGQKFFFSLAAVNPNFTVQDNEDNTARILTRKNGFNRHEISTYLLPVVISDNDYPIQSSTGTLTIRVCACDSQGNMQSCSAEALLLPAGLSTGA
Protocol: as §1

binding EC50 on OVCAR-3 cell compared with the chimeric antibody [1]: slightly lower EC50 | binding to CDH9-ECD-His [2]: does not bind | binding to CDH10-ECD-His [3]: does not bind
B1: CL069707-H1L1: humanized antibody; heavy chain SEQ ID NO: 74, light chain SEQ ID NO: 76 (antibody)
heavy: EVQLVESGGGLVQPGGSLRLSCAASGFTFTTYAMNWVRQAPGKGLEWVARIRIKNNNYATYYADSVTDRFTISRDDSKNSLYLQMNSLKTEDTAVYYCVRPDYGNYGLAYWGQGTLVTVSS[left out - human IgG1 constant region]
light: DIQLTQSPSSLSASVGDRVTITCSASSSISSHYLHWYQQKPGKSPKLLIYRSFYLASGVPSRFSGSGSGTDFTLTISSLQPEDFATYYCQQDIVPLTFGQGTKLEIKRTVAAPSVFIFPPSDEQLKSGTASVVCLLNNFYPREAKVQWKVDNALQSGNSQESVTEQDSKDSTYSLSSTLTLSKADYEKHKVYACEVTHQGLSSPVTKSFNRGEC
modifications: CL069707-H1; CL069707-L1
